Measured values taken from the supplement of paper PMC8728848.
Some of the results follow.

Assays:
Experiment in all cases: glycan array binding signal (z-score within array); higher = stronger binding
Conditions in all cases: glycan notation: IUPAC condensed, linker removed
GalNAc3S(b1-4)GlcNAc3S = biological target: GalNAc3S(b1-4)GlcNAc3S
Summary of the method: (§1)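 The binding signal is a Z-score computed within each array and averaged over linkers. Arrays of the same protein sequence at different concentrations or buffers were also averaged together. Data originate from 3228 arrays in the Consortium for Functional Glycomics database, kept only where the protein sequence was available.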

[1] = biological target: GalNAc3S(b1-4)[Fuc(a1-3)]GlcNAc
Summary of the method: as §1

GalNAc4S6S(b1-4)GlcNAc = biological target: GalNAc4S6S(b1-4)GlcNAc
Summary of the method: as §1

GalNAc6S(b1-4)GlcNAc = biological target: GalNAc6S(b1-4)GlcNAc
Summary of the method: as §1

Glc(a1-4)Glc = biological target: Glc(a1-4)Glc
Summary of the method: as §1

[2] = biological target: Glc(a1-4)Glc(a1-4)Glc(a1-4)Glc
Summary of the method: as §1

Glc(a1-6)Glc(a1-6)Glc = biological target: Glc(a1-6)Glc(a1-6)Glc
Summary of the method: as §1

[3] = biological target: Glc(a1-6)Glc(a1-6)Glc(a1-6)Glc
Summary of the method: as §1

Glc(b1-4)Glc = biological target: Glc(b1-4)Glc
Summary of the method: as §1

Glc(b1-6)Glc = biological target: Glc(b1-6)Glc
Summary of the method: as §1

GlcA(b1-3)Gal = biological target: GlcA(b1-3)Gal
Summary of the method: as §1

GlcA(b1-3)GlcNAc = biological target: GlcA(b1-3)GlcNAc
Summary of the method: as §1

GlcA(b1-6)Gal = biological target: GlcA(b1-6)Gal
Summary of the method: as §1

[4] = biological target: GlcA3S(b1-3)Gal(b1-4)GlcNAc(b1-2)Man
Summary of the method: as §1

[5] = biological target: GlcA3S(b1-3)Gal(b1-4)GlcNAc(b1-3)Gal(b1-4)Glc
Summary of the method: as §1

[6] = biological target: GlcNAc(a1-3)Gal(b1-4)GlcNAc
Summary of the method: as §1

[7] = biological target: GlcNAc(a1-4)Gal(b1-3)GlcNAc
Summary of the method: as §1

[8] = biological target: GlcNAc(a1-4)Gal(b1-4)GalNAc
Summary of the method: as §1

[9] = biological target: GlcNAc(a1-4)Gal(b1-4)GlcNAc
Summary of the method: as §1

[10] = biological target: GlcNAc(a1-4)Gal(b1-4)GlcNAc(b1-3)Gal(b1-4)Glc
Summary of the method: as §1

[11] = biological target: GlcNAc(a1-4)Gal(b1-4)GlcNAc(b1-3)Gal(b1-4)GlcNAc
Summary of the method: as §1

[12] = biological target: GlcNAc(a1-4)Gal(b1-4)GlcNAc(b1-3)Gal(b1-4)GlcNAc(b1-3)Gal(b1-4)GlcNAc
Summary of the method: as §1

[13] = biological target: GlcNAc(a1-4)Gal(b1-4)GlcNAc(b1-3)Gal(b1-4)[Fuc(a1-3)]GlcNAc(b1-3)Gal(b1-4)[Fuc(a1-3)]GlcNAc
Summary of the method: as §1

[14] = biological target: GlcNAc(a1-6)Gal(b1-4)GlcNAc
Summary of the method: as §1

[15] = biological target: GlcNAc(b1-2)Gal(b1-3)GalNAc
Summary of the method: as §1

[16] = biological target: GlcNAc(b1-2)Man(a1-3)[GlcNAc(b1-2)Man(a1-6)]Man(b1-4)GlcNAc(b1-4)GlcNAc
Summary of the method: as §1

[17] = biological target: GlcNAc(b1-2)Man(a1-3)[GlcNAc(b1-2)Man(a1-6)]Man(b1-4)GlcNAc(b1-4)[Fuc(a1-6)]GlcNAc
Summary of the method: as §1

[18] = biological target: GlcNAc(b1-2)Man(a1-3)[GlcNAc(b1-4)][GlcNAc(b1-2)Man(a1-6)]Man(b1-4)GlcNAc(b1-4)GlcNAc
Summary of the method: as §1

[19] = biological target: GlcNAc(b1-2)Man(a1-3)[GlcNAc(b1-4)][GlcNAc(b1-2)Man(a1-6)]Man(b1-4)GlcNAc(b1-4)[Fuc(a1-6)]GlcNAc
Summary of the method: as §1

[20] = biological target: GlcNAc(b1-2)[GlcNAc(b1-4)]Man(a1-3)[GlcNAc(b1-2)Man(a1-6)]Man(b1-4)GlcNAc(b1-4)GlcNAc
Summary of the method: as §1

[21] = biological target: GlcNAc(b1-2)[GlcNAc(b1-4)]Man(a1-3)[GlcNAc(b1-4)][GlcNAc(b1-2)Man(a1-6)]Man(b1-4)GlcNAc(b1-4)GlcNAc
Summary of the method: as §1

[22] = biological target: GlcNAc(b1-2)[GlcNAc(b1-4)]Man(a1-3)[GlcNAc(b1-4)][GlcNAc(b1-2)[GlcNAc(b1-6)]Man(a1-6)]Man(b1-4)GlcNAc(b1-4)GlcNAc
Summary of the method: as §1

[23] = biological target: GlcNAc(b1-2)[GlcNAc(b1-4)]Man(a1-3)[GlcNAc(b1-4)][GlcNAc(b1-2)[GlcNAc(b1-6)]Man(a1-6)]Man(b1-4)GlcNAc(b1-4)[Fuc(a1-6)]GlcNAc
Summary of the method: as §1

[24] = biological target: GlcNAc(b1-2)[GlcNAc(b1-6)]Man(a1-6)[GlcNAc(b1-2)Man(a1-3)]Man(b1-4)GlcNAc(b1-4)GlcNAc
Summary of the method: as §1

[25] = biological target: GlcNAc(b1-2)[GlcNAc(b1-6)]Man(a1-6)[GlcNAc(b1-2)Man(a1-3)]Man(b1-4)GlcNAc(b1-4)[Fuc(a1-6)]GlcNAc
Summary of the method: as §1

[26] = biological target: GlcNAc(b1-2)[GlcNAc(b1-6)]Man(a1-6)[GlcNAc(b1-4)][GlcNAc(b1-2)Man(a1-3)]Man(b1-4)GlcNAc(b1-4)GlcNAc
Summary of the method: as §1

GlcNAc(b1-3)Fuc = biological target: GlcNAc(b1-3)Fuc
Summary of the method: as §1

GlcNAc(b1-3)Gal = biological target: GlcNAc(b1-3)Gal
Summary of the method: as §1

B1: Epa6 (Candida glabrata), Q6DTM7_CANGB (protein)
chain: MGSSHHHHHHSSGLVPRGSHMKDDYSSSLSNNNLGWTDPTEFPLGCSPNVTTPKNGLSMELYSYDYLKSGSNPCWDAAYLDPNYPRTGYKSHRLLAKVENVAGNINFYYHAPMGCTSLFDTLPQAYNYRTPLTMTNFTMLLYGYFKPKVTGYHTFTISADDLLFVNFGAGNAFDCCKRESSADDFGNYQAYAVWGSQTAKDDLTVHLDAGLYYPIRIFFNNRDNDGALSLTLKTESDPNPVIDFSDYFYSFDDTKDGCPGLVSYDTS
glycan array binding signal (z-score) (GalNAc3S(b1-4)GlcNAc3S): -0.334
glycan array binding signal (z-score) [1]: -0.285
glycan array binding signal (z-score) (GalNAc4S6S(b1-4)GlcNAc): -0.321
glycan array binding signal (z-score) (GalNAc6S(b1-4)GlcNAc): -0.31
glycan array binding signal (z-score) (Glc(a1-4)Glc): -0.321
glycan array binding signal (z-score) [2]: -0.267
glycan array binding signal (z-score) (Glc(a1-6)Glc(a1-6)Glc): -0.312
glycan array binding signal (z-score) [3]: -0.341
glycan array binding signal (z-score) (Glc(b1-4)Glc): -0.32
glycan array binding signal (z-score) (Glc(b1-6)Glc): -0.303
glycan array binding signal (z-score) (GlcA(b1-3)Gal): -0.328
glycan array binding signal (z-score) (GlcA(b1-3)GlcNAc): -0.345
glycan array binding signal (z-score) (GlcA(b1-6)Gal): 0.615
glycan array binding signal (z-score) [4]: -0.309
glycan array binding signal (z-score) [5]: -0.333
glycan array binding signal (z-score) [6]: -0.308
glycan array binding signal (z-score) [7]: -0.306
glycan array binding signal (z-score) [8]: -0.297
glycan array binding signal (z-score) [9]: -0.307
glycan array binding signal (z-score) [10]: -0.346
glycan array binding signal (z-score) [11]: -0.303
glycan array binding signal (z-score) [12]: -0.297
glycan array binding signal (z-score) [13]: -0.268
glycan array binding signal (z-score) [14]: -0.07
glycan array binding signal (z-score) [15]: -0.289
glycan array binding signal (z-score) [16]: -0.321
glycan array binding signal (z-score) [17]: -0.233
glycan array binding signal (z-score) [18]: -0.339
glycan array binding signal (z-score) [19]: -0.314
glycan array binding signal (z-score) [20]: -0.326
glycan array binding signal (z-score) [21]: -0.301
glycan array binding signal (z-score) [22]: -0.337
glycan array binding signal (z-score) [23]: -0.329
glycan array binding signal (z-score) [24]: -0.343
glycan array binding signal (z-score) [25]: -0.309
glycan array binding signal (z-score) [26]: -0.344
glycan array binding signal (z-score) (GlcNAc(b1-3)Fuc): -0.332
glycan array binding signal (z-score) (GlcNAc(b1-3)Gal): -0.334
